Laboratory results published in paper PMC12136788.
This is one part of the list.

T1: UNK ZnF1-3 (human, UniProt Q9C0B0 31-174)
T1 sequence: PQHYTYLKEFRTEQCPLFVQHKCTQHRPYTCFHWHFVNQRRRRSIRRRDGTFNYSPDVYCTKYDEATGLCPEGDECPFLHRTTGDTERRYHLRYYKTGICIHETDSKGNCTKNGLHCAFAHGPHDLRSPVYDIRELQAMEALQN

B1: chr8:74527950:74527951:-_ENSG00000040341_ENST00000355780|hu_mus|motif|central (ssRNA)
RNA: GGGAGUUCUACAGUCCGACGAUCUUCUUUAAUAACCUCAAAACUGACAGGCAUAUUUCUCUUCAGCGCAAUCUCAAACACGGAGCUUAUUUCAGAUUUAUUUGCAUCUUUAUCGUCAUCCAUUUCUUUUCCUGAUUCACCAUUCAACAGAGGAUUGAGCAUCA
B2: 29362346_29365796_1561_CDS_ENSG00000159023_ENST00000356093|human|control|control (ssRNA)
RNA: GGGAGUUCUACAGUCCGACGAUCGCUUUUGGGAAUGGUGUCUGUAGAUGUCAAUCUGAAAAACGUGUGAUGUUCUACACAGACUUUCCAUAAUUUCUUAGCUGCUCGGUAACUGGGAAGUUUGAAUCCGAUGGUACUUUCAUACAACAGAGGAUUGAGCAUCA
B3: chr2:90693216:90693217:+_ENSMUSG00000027282_ENSMUST00000136872|mus_hu|FALSE|FALSE (ssRNA)
RNA: GGGAGUUCUACAGUCCGACGAUCCUCCUUGAUAACGUGGUCAAAGGAAGAUGAGACUUCUUUCUGUACAUUUCCAGGUCCUAACUCCUGUAAAACUUUACCAUGGACCACAGUUCCAAGGACUCCCGAACACAGUCUUGGAGUCAACAGAGGAUUGAGCAUCA
B4: chr8:95500983:95500984:-_ENSG00000164944_ENST00000437199|hu_hu|hu_hu_hu_mus_True|28_68 (ssRNA)
RNA: GGGAGUUCUACAGUCCGACGAUCAGAACACAUCUAUCGAGUAAAGGACCGUACAUGACGGCCUCUAACCACUGCCUCACUAACAAACUUUCCUCUCGAGCCUCCACCUGCCGCUAUUGUACUAGCCCAGGACGGUCCCAGGCCCAACAGAGGAUUGAGCAUCA
B5: chr18:56819859:56819860:+_ENSG00000166562_ENST00000588875|hu_hu|motif|central (ssRNA)
RNA: GGGAGUUCUACAGUCCGACGAUCAACUUUGAUUACUCUGUGAACUAUUGGAAUGUCUCGUCCUUCAACUUUAAAAACAACGGUUUCACCAGCUCUGAUUGGGUCUUCCCGGAAAUUUGUGAGGAACAGGAGGUCUCCUCUGUGCAACAGAGGAUUGAGCAUCA
B6: chr1:167252050:167252051:+_ENSMUSG00000040836_ENSMUST00000111450|mus_hu|FALSE|FALSE (ssRNA)
RNA: GGGAGUUCUACAGUCCGACGAUCACUGUGAAGAGGAGGAAAUGAUGCAUGUGGGGGUCUCCUUCCAAGCCCUUCGUCUCUGGUCCUCCCAUGCCCCACCUCCCAAAAAGCCACAGCCACAUCUCUAGAUUUUUUUUUGGUUUUCAACAGAGGAUUGAGCAUCA

What follows are binders tested against T1, UNK ZnF1-3 (assay: nsRBNS (natural sequence RNA bind-n-seq); RBNS binding buffer (assumed for nsRBNS): 25 mM Tris pH 7.5, 150 mM KCl, 3 mM MgCl2, 0.01% Triton X-100, 500 ug/ml BSA, 20 U/ml SUPERase-In, 4 C; UNK is unkempt and MSI1 is Musashi-1; names of the RNAs are library labels; protein concentration not given here; high values mean tight binding).
In the case of B1, the binding signal is reported as 0.854 enrichment R. B2 was tested, and the binding signal was 0.874 enrichment R. In the case of B3, the binding signal is reported as 0.621 enrichment R. With B4 the binding signal was 1.41 enrichment R. B5 was tested, and the binding signal was 1 enrichment R. For B6, the binding signal was 0.787 enrichment R.
